# The supplement of paper PMC4604168 (melanoma cell lines)
# This is one part of the list. Repeats are few or missing, and single values can be far off.
# Legend:
# Test in all cases: cell count relative to DMSO control; melanoma cells; higher = more viable cells
# Conditions in all cases: library dose: standard library concentration; 72 h
# G361 = tested on: G361
# IPC-298 = tested on: IPC-298
# IST-MEL1 = tested on: IST-MEL1
# LOXIMVI = tested on: LOXIMVI
# MEL-HO = tested on: MEL-HO
# MeWo = tested on: MeWo
# RPMI7951 = tested on: RPMI7951
# RVH-421 = tested on: RVH-421
# LB2518-MEL = tested on: LB2518-MEL
# MZ2-MEL = tested on: MZ2-MEL
# 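Also: cells treated in 1,536-well plates, then fixed and DAPI-stained, with nuclei counted from automated high-throughput microscope images.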
Compound,cell count (G361),cell count (IPC-298),cell count (IST-MEL1),cell count (LOXIMVI),cell count (MEL-HO),cell count (MeWo),cell count (RPMI7951),cell count (RVH-421),cell count (LB2518-MEL),cell count (MZ2-MEL)
"Cc1nc(Nc2ncc(C(=O)Nc3c(C)cccc3Cl)s2)cc(N2CCN(CCO)CC2)n1 [dasatanib] + C[C@]1(c2nc3c(C(N)=O)cccc3[nH]2)CCCN1 [Veliparib] (first compound 0.02 µM, partner dose 7 µM)",63.2%,103%,88.7%,9.09%,74.9%,92%,48.2%,56.8%,–,–
"NC(=O)Nc1cc(-c2cccc(F)c2)sc1C(=O)N[C@H]1CCCNC1 + O=C(Nc1cccc(Cl)c1)Nc1ncc(CCNc2ncnc3ccsc23)s1 [SNS314] (first compound 0.1 µM, partner dose 0.004 µM)",69.2%,99.4%,65.7%,68.4%,80.3%,62.3%,30.9%,101%,–,–
"NC(=O)Nc1cc(-c2cccc(F)c2)sc1C(=O)N[C@H]1CCCNC1 + COC(=O)c1sccc1S(=O)(=O)Nc1ccc(Nc2ccccc2)cc1OC [GSK0660] (first compound 0.1 µM, partner dose 5 µM)",96.4%,84.8%,93.8%,89.4%,81.7%,80.6%,27.2%,126%,67%,93.9%
"C=CCn1c(=O)c2cnc(Nc3ccc(N4CCN(C)CC4)cc3)nc2n1-c1cccc(C(C)(C)O)n1 + OCCn1cc(-c2cnc3nnn(Cc4ccc5ncccc5c4)c3n2)cn1 [PF04217903] (first compound 0.1 µM, partner dose 5 µM)",79.1%,81.7%,81.2%,96.6%,95.2%,81.4%,56%,91.2%,–,–
"C[C@]1(c2nc3c(C(N)=O)cccc3[nH]2)CCCN1 [Veliparib] + Cc1ccc(NC(=O)c2cccc(N(C)C)c2)cc1NC(=O)c1ccc(O)cc1 [ZM336372] (first compound 7 µM, partner dose 10 µM)",78.3%,90.6%,75.1%,103%,78.8%,94.8%,92.2%,91.6%,83.1%,99%
"NC(=O)Nc1cc(-c2cccc(F)c2)sc1C(=O)N[C@H]1CCCNC1 + c1cc(-c2cnn3cc(-c4ccc(OCCN5CCCCC5)cc4)cnc23)ccn1 [Dorsomorphin] (first compound 0.1 µM, partner dose 2 µM)",62.5%,89.7%,90%,105%,81.9%,65.6%,36.1%,107%,82.5%,74.6%
"OCCn1cc(-c2cnc3nnn(Cc4ccc5ncccc5c4)c3n2)cn1 + CCN(CC)CCCCNc1ncc2cc(-c3cc(OC)cc(OC)c3)c(NC(=O)NC(C)(C)C)nc2n1 [PD173074] (first compound 5 µM, partner dose 0.5 µM)",109%,95.3%,93.6%,93.7%,85.2%,84.9%,71.4%,92.9%,–,–
"C[C@]1(c2nc3c(C(N)=O)cccc3[nH]2)CCCN1 [Veliparib] + COc1cc2c(Oc3ccc4[nH]c(C)cc4c3F)ncnc2cc1OCCCN1CCCC1 [cediranib] (first compound 7 µM, partner dose 2 µM)",74.9%,94%,60.7%,64.5%,78.6%,71.8%,75.3%,69.7%,–,–
"CN(C)S(=O)(=O)c1ccc2c(c1)/C(=C/c1cc3c([nH]1)CCCC3)C(=O)N2 + CC(C)CCN1c2nc(Nc3cc(F)c(O)c(F)c3)ncc2N(C)C(=O)C1C [BID1870] (first compound 2 µM, partner dose 1 µM)",50.4%,68.2%,76%,119%,67.2%,75.6%,50.3%,69.4%,–,–
"CN(C)S(=O)(=O)c1ccc2c(c1)/C(=C/c1cc3c([nH]1)CCCC3)C(=O)N2 + Oc1cc(-c2nc(-c3ccccc3)[nH]c2-c2ccncc2)ccc1Cl [L779450] (first compound 2 µM, partner dose 1 µM)",62.2%,58.5%,58.2%,100%,84.4%,82.5%,41.4%,24.7%,59%,73.3%
"C[C@]1(c2nc3c(C(N)=O)cccc3[nH]2)CCCN1 [Veliparib] + Cc1cc(N2CCOCC2)cc2[nH]c(-c3c(NC[C@@H](O)c4cccc(Cl)c4)cc[nH]c3=O)nc12 [BMS536924] (first compound 7 µM, partner dose 1 µM)",75.6%,96.5%,87.3%,73.6%,96.7%,73.9%,79.3%,86.3%,–,–
"Cc1nc(Nc2ncc(C(=O)Nc3c(C)cccc3Cl)s2)cc(N2CCN(CCO)CC2)n1 [dasatanib] + CN(C)S(=O)(=O)c1ccc2c(c1)/C(=C/c1cc3c([nH]1)CCCC3)C(=O)N2 [SU6656] (first compound 0.02 µM, partner dose 2 µM)",40.1%,82.4%,52.6%,21.4%,67.7%,61.6%,36%,58.8%,–,–
"C[C@]1(c2nc3c(C(N)=O)cccc3[nH]2)CCCN1 [Veliparib] + c1cc(-c2cnn3cc(-c4ccc(OCCN5CCCCC5)cc4)cnc23)ccn1 [Dorsomorphin] (first compound 7 µM, partner dose 2 µM)",46.4%,83%,82.6%,103%,84.7%,63.9%,68.2%,86.7%,60.6%,57.6%
"C=CCn1c(=O)c2cnc(Nc3ccc(N4CCN(C)CC4)cc3)nc2n1-c1cccc(C(C)(C)O)n1 + Cc1cc([N+](=O)[O-])ccc1NS(=O)(=O)c1cc(Cl)ccc1Cl [FH535] (first compound 0.1 µM, partner dose 5 µM)",48.3%,53.7%,61.2%,79.2%,53.5%,58.2%,86%,68.2%,–,–
"C=CCn1c(=O)c2cnc(Nc3ccc(N4CCN(C)CC4)cc3)nc2n1-c1cccc(C(C)(C)O)n1 + c1cc(-c2cnn3cc(-c4ccc(OCCN5CCCCC5)cc4)cnc23)ccn1 [Dorsomorphin] (first compound 0.1 µM, partner dose 2 µM)",58.6%,75%,93.8%,74.5%,81.4%,63%,51.7%,107%,58.6%,69.2%
"Cc1nc(Nc2ncc(C(=O)Nc3c(C)cccc3Cl)s2)cc(N2CCN(CCO)CC2)n1 [dasatanib] + Cc1cc([N+](=O)[O-])ccc1NS(=O)(=O)c1cc(Cl)ccc1Cl [FH535] (first compound 0.02 µM, partner dose 5 µM)",40.6%,42%,43.2%,18.6%,42%,64.4%,49.1%,55.2%,48.8%,29.6%
"C[C@]1(c2nc3c(C(N)=O)cccc3[nH]2)CCCN1 [Veliparib] + Cn1nnc2c(C(N)=O)ncn2c1=O [temozolomide] (first compound 7 µM, partner dose 10 µM)",87%,89.8%,78.8%,61%,96.1%,93.2%,79.1%,84.8%,71.2%,84.3%
"CO[C@@H]1[C@H](N(C)C(=O)c2ccccc2)C[C@H]2O[C@]1(C)n1c3ccccc3c3c4c(c5c6ccccc6n2c5c31)C(=O)NC4 [Midostaurin] + CN(NC(=O)CC(=O)NN(C)C(=S)c1ccccc1)C(=S)c1ccccc1 [STA4783] (first compound 0.4 µM, partner dose 0.03 µM)",30.5%,65.8%,14.7%,52%,66.4%,15.2%,51%,83.2%,–,–
"CO[C@@H]1[C@H](N(C)C(=O)c2ccccc2)C[C@H]2O[C@]1(C)n1c3ccccc3c3c4c(c5c6ccccc6n2c5c31)C(=O)NC4 [Midostaurin] + c1cc(-c2cnn3cc(-c4ccc(OCCN5CCCCC5)cc4)cnc23)ccn1 [Dorsomorphin] (first compound 0.4 µM, partner dose 2 µM)",44.1%,69.1%,67.8%,81.1%,74.4%,56.5%,34.9%,66.3%,–,–
"NCC(=O)Nc1ccc(-n2nc(C(F)(F)F)cc2-c2ccc3c(ccc4ccccc43)c2)cc1 + Cc1cc([N+](=O)[O-])ccc1NS(=O)(=O)c1cc(Cl)ccc1Cl [FH535] (first compound 5 µM, partner dose 5 µM)",47.1%,43.1%,58.1%,108%,54.3%,85.2%,91%,67%,49%,70.8%
